{
  "source": "paper PMC6919601",
  "about": "“Identification of Plasmodium dipeptidyl aminopeptidase allosteric inhibitors by high throughput screening” (PLoS ONE, 2019)",
  "note": "The campaign covered roughly 110,000 compounds. About 230 (0.21%) showed an effect of 50% or more. The list shows a part of the results.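 Further: 30 min substrate incubation versus DMSO and 10 µM JCP410 controls.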",
  "data": [
    {"biological_target": "DPAP1 (Plasmodium falciparum, UniProt Q8IIJ9)", "sequence (Q8IIJ9 whole entry, looked up)": "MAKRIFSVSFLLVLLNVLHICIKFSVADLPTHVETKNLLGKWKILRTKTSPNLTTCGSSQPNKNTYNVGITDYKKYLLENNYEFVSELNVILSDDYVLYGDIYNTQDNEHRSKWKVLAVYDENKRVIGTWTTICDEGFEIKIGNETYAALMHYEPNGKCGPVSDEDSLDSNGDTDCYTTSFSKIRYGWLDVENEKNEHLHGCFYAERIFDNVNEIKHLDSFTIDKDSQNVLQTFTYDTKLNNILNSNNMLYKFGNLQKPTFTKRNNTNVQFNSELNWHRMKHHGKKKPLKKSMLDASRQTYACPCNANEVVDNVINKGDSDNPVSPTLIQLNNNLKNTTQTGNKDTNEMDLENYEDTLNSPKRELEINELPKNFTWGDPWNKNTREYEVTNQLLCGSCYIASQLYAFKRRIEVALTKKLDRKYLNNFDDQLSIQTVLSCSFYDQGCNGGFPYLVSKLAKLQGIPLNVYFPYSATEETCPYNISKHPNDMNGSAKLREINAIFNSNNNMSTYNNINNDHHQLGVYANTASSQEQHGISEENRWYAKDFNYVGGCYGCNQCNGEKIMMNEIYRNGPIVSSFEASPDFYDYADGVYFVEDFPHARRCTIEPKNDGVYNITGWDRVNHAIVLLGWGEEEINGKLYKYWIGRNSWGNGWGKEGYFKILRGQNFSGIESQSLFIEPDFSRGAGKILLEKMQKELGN", "experiment": "primary screen, percent inhibition; read by cleavage of a fluorogenic dipeptide substrate; higher = more effect of the substance", "design": "species or system P. falciparum D10 trophozoite lysates; single well", "units": {"% Inhibition @ 10 uM": "%"}, "values": [
      {"smiles": "CC(=O)OC(CN1CCCCCC1)c1ccccc1", "note": "(stereo not drawn)", "% Inhibition @ 10 uM": -5.28},
      {"smiles": "CCCc1nn(C)c2c(O)nc(-c3cc(S(=O)(=O)Nc4ccc(C)cc4)ccc3OCC)nc12", "% Inhibition @ 10 uM": -3.39},
      {"smiles": "COc1ccc(CCNc2nnc(C)c3nnn(Cc4ccccc4Cl)c23)cc1", "% Inhibition @ 10 uM": 9.21},
      {"smiles": "CCOC(=O)N1CCN(C(=O)COc2ccc(C(C)C)cc2Br)CC1", "% Inhibition @ 10 uM": 3.87},
      {"smiles": "CCOCCCNC(=O)c1cnn(-c2ccc(C)cc2)c1C1CCN(C(=O)OC(C)(C)C)CC1", "% Inhibition @ 10 uM": -0.707},
      {"smiles": "Cc1ccccc1CN1CCN(C)CC1", "% Inhibition @ 10 uM": -5.61},
      {"smiles": "O=C(CCS(=O)(=O)Cc1ccc(Cl)cc1)NCCCN1CCOCC1", "% Inhibition @ 10 uM": -0.0542},
      {"smiles": "C=C(C)Cn1c(CN2CCOCC2)nc2c1c(=O)n(C)c(=O)n2C", "% Inhibition @ 10 uM": 2.31},
      {"smiles": "Cc1cccc(NC(=O)C2c3ccccc3C(=O)N(C3CCCC3)C2c2cccs2)n1", "note": "(stereo not drawn)", "% Inhibition @ 10 uM": 1.69},
      {"smiles": "O=C(c1ccc(F)cc1)N1CCN(c2ccccc2)CC1", "% Inhibition @ 10 uM": -1.59},
      {"smiles": "O=C(NCc1ccco1)c1cc2nc(-c3cccs3)cc(C(F)(F)F)n2n1", "% Inhibition @ 10 uM": 2.65},
      {"smiles": "COC(=O)c1cc(-c2cccc(N)c2)nc2ccccc12", "% Inhibition @ 10 uM": 1.38},
      {"smiles": "Cc1cccc(OCCCCSCc2nc3ccccc3[nH]2)c1", "% Inhibition @ 10 uM": 4.8},
      {"smiles": "CCC(C)c1ccccc1OCC(=O)Nc1ccccc1C(N)=O", "note": "(stereo not drawn)", "% Inhibition @ 10 uM": -1.89},
      {"smiles": "CCC(C)N1CCN(C(=O)C2CCN(S(=O)(=O)c3c(C)noc3/C=C/c3ccco3)CC2)CC1", "note": "(stereo not drawn)", "% Inhibition @ 10 uM": 0.458},
      {"smiles": "Cc1cn(C(=O)c2cccc(Br)c2)c(C)n1", "% Inhibition @ 10 uM": -1.81},
      {"smiles": "CC(CNC1CCN(C)CC1)c1ccccc1", "note": "(stereo not drawn)", "% Inhibition @ 10 uM": -8.55},
      {"smiles": "COc1cc(OC)cc(C(=O)Nc2cc(Cl)ccc2C)c1", "% Inhibition @ 10 uM": 6.37},
      {"smiles": "Cc1nc2ncnn2c(O)c1NS(=O)(=O)c1ccc(CC(C)C)cc1", "% Inhibition @ 10 uM": -4.47},
      {"smiles": "CC(=O)NS(=O)(=O)c1ccc(NC(=O)c2cc(-c3ccc(C)cc3)nc3ccccc23)cc1", "% Inhibition @ 10 uM": -13.6},
      {"smiles": "C=CCNC(=O)CCC(=O)c1ccc(OC)cc1", "% Inhibition @ 10 uM": -5.03},
      {"smiles": "CC(C)[C@H](O)[C@H](NC(=O)OCc1ccccc1)C(=O)NCC#N", "% Inhibition @ 10 uM": -1.5},
      {"smiles": "CCOc1cccc(C(=O)Nc2ccc(Cl)c(-c3nc4ncccc4o3)c2)c1", "% Inhibition @ 10 uM": -6.83},
      {"smiles": "CC(=O)c1ccc(NC(=O)Cc2ccccc2F)cc1", "% Inhibition @ 10 uM": -0.318},
      {"smiles": "O=C(Nc1ccc2c(c1)OCO2)C1CCCCC1", "% Inhibition @ 10 uM": -4.15},
      {"smiles": "CCOc1ccc(CNC(=O)c2cc3c(O)nc4ccccc4c3s2)cc1", "% Inhibition @ 10 uM": 4.51},
      {"smiles": "O=C(Nc1cccc(-c2cn3ccsc3n2)c1)c1cccc(Cl)c1", "% Inhibition @ 10 uM": 1.37},
      {"smiles": "CCOc1ccc(NC(=O)C2=C(C)N=C(S)NC2c2cccs2)cc1", "note": "(stereo not drawn)", "% Inhibition @ 10 uM": -2.48},
      {"smiles": "O=C(Cc1ccccc1)Nc1ccccc1C(=O)Nc1ccc(C(=O)O)cc1", "% Inhibition @ 10 uM": -3.37},
      {"smiles": "COc1ccc(C)cc1N(CC(=O)N(C)C)S(=O)(=O)c1ccc(C)cc1", "% Inhibition @ 10 uM": -5.13},
      {"smiles": "COC(=O)c1cc(-c2c[nH]c3ccccc23)[nH]n1", "% Inhibition @ 10 uM": -3.53},
      {"smiles": "Cc1ccccc1Cn1c(=O)n(CCC(=O)NCc2ccccc2)c(=O)c2sccc21", "% Inhibition @ 10 uM": 1.82},
      {"smiles": "CCN(CC)c1ncnc2c1[nH]c1ccc(OC)cc12", "% Inhibition @ 10 uM": -3.24},
      {"smiles": "CN1CCN(C(=O)c2ccc(N(C)C)cc2)CC1", "% Inhibition @ 10 uM": -7.02},
      {"smiles": "CC(CNCc1c(C(=O)O)n(Cc2cccc(Cl)c2)c2ccccc12)c1ccccc1", "note": "(stereo not drawn)", "% Inhibition @ 10 uM": 0.277},
      {"smiles": "Cc1ccc(C)c(NC(=O)C(C)Sc2ccccc2)c1", "note": "(stereo not drawn)", "% Inhibition @ 10 uM": -2.88},
      {"smiles": "Cc1ccccc1OCC(O)Cn1c(SCC(C)C)nc2c1c(=O)[nH]c(=O)n2C", "note": "(stereo not drawn)", "% Inhibition @ 10 uM": 7.2},
      {"smiles": "CCOC(=O)c1ccc2nc(NC(=O)CSc3nc(C)cc(O)n3)sc2c1", "% Inhibition @ 10 uM": 26.7},
      {"smiles": "CC(Nc1oc(/C=C/c2cccs2)nc1C#N)c1ccccc1", "note": "(stereo not drawn)", "% Inhibition @ 10 uM": -1.71},
      {"smiles": "COC(=O)C1=C(C)NC(=O)/C1=C\\c1cc(C)n(-c2ccc(C)cc2C)c1C", "% Inhibition @ 10 uM": 0.146},
      {"smiles": "CCN(CC)CCNC(=O)Cn1c(=O)c2cccn2c2cccnc21", "% Inhibition @ 10 uM": -0.995},
      {"smiles": "Cc1ccc(-c2nn(C)c(=O)c3ccccc23)cc1S(=O)(=O)NC(C)c1ccccc1", "note": "(stereo not drawn)", "% Inhibition @ 10 uM": 1.31},
      {"smiles": "CC(NC(=O)CSc1nc2c(cc1C#N)CN(C)CC2)c1ccccc1", "note": "(stereo not drawn)", "% Inhibition @ 10 uM": -1.38},
      {"smiles": "COc1cc(N2CCCC2)c(OC)cc1/C=C1\\NC(=O)N(Cc2ccccc2)C1=O", "% Inhibition @ 10 uM": -0.469},
      {"smiles": "CC(=O)c1ccccc1-c1cccc(C(=O)N[C@@H](CC(C)C)C(=O)NCC#N)c1", "% Inhibition @ 10 uM": -3.48},
      {"smiles": "O=C1Nc2cccnc2Sc2ccccc21", "% Inhibition @ 10 uM": 3.29},
      {"smiles": "O=C(Nc1ccccc1)n1c(=O)oc2cc(Br)ccc21", "% Inhibition @ 10 uM": 7.66},
      {"smiles": "CN1CCN(c2nc3c(N)ncnc3n2CC(O)CO)CC1", "note": "(stereo not drawn)", "% Inhibition @ 10 uM": -0.0217},
      {"smiles": "Cc1cc(C)c(-c2c(NCCc3ccc(Cl)cc3)c(=O)c2=O)cc1C", "% Inhibition @ 10 uM": -4.96},
      {"smiles": "C=CCO/C(O)=C1/C(C)=Nc2ncnn2C1c1ccccc1OC", "note": "(stereo not drawn)", "% Inhibition @ 10 uM": -7.08},
      {"smiles": "C1=CC2CC1CC2CN1CCc2c([nH]c3ccccc23)C1", "note": "(stereo not drawn)", "% Inhibition @ 10 uM": -2.95}
    ]}
  ]
}
